In all, about 52,000 compounds went through this assay and about 1,700 (3.3%) were called active. Rule as the data show it: active = survival mostly below about 52% (no sharp cut-off); inactive = mostly above about 56%. Some of the results follow.

The subject of the test is Wild type. The test can be described thus: growth inhibition of S. aureus wild type versus tarO mutant, primary screen, teichoic acid synthesis inhibitors, RN4220, OD600 (AID 463173). The note with it: S. aureus RN4220 wild type/DeltatarO growth, OD600, 18 h, active compounds read low, screened at 18.75 µg/mL (by protocol).
For the compound `CCOC(=O)c1c(S(=O)(=O)N2CCCC(C(=O)Nc3ccccn3)C2)c(C)n(C)c1C` (stereo not drawn), the survival was inactive: 82%. The value for `COc1cc(CNC(=O)C2CCCCN2S(=O)(=O)c2ccc(F)cc2)cc(OC)c1OC` (stereo not drawn) was inactive: 77%; that for `CCc1cccc(NC(=O)CN2Cc3ccccc3C2=O)c1` was inactive: 131%. In the case of `CCOc1ccc(C2CC(=O)Nc3cc4c(cc32)OCO4)cc1OC` (stereo not drawn) it was inactive: 124%; in that of `COc1ccc(-c2cc(C)no2)cc1S(=O)(=O)NCc1cccs1`, inactive: 93%; in that of `COc1ccccc1CNC(=O)c1cccn1-c1nnc(N2CCCCC2)s1`, active: 10%. The value for `COc1ccc(CN2CCc3c(c(=O)n4ncc(C(=O)N5CCN(c6ccc(F)cc6)CC5)c4n3C)C2)cc1` was inactive: 78%; that for `COC(=O)c1c(NC(=O)Cc2coc3cc(C)ccc23)sc2c1CCCC2` was inactive: 85%.

For `Cc1ccc(CNC(=O)C2CCN(S(=O)(=O)c3ccc(F)cc3)CC2)cc1`, the survival is inactive: 73%. In the case of `CC(=O)N1CCc2c(sc3c2c(=O)n(-c2ccc(C)cc2)c(=O)n3Cc2c(F)cccc2Cl)C1` it was inactive: 133%; in that of `COc1ccc(CNC(=O)c2cc(-c3ccc(OC)cc3)nc3n[nH]c(-c4cccc([N+](=O)[O-])c4)c23)cc1`, inactive: 86%; in that of `Cc1ccc2cccc(NC(=O)COc3ccccc3Cl)c2n1`, inactive: 134%.

Consider `Cc1ccc(C)c(Cn2c(CCCNC(=O)C3CCCCC3)nc3ccccc32)c1`, for which the survival is inactive: 91%.

`CCCOc1cccc(C2c3c(oc4ccccc4c3=O)C(=O)N2c2nncs2)c1` (stereo not drawn): the survival is inactive: 98%.

With `Cc1ccc(-c2nc(CS(=O)CC(=O)N3CCN(c4cccc(Cl)c4)CC3)c(C)o2)cc1` (stereo not drawn), the survival is active: 5%.

Consider `COc1cccc(C(=O)c2cn(CC(=O)NCc3ccccc3Cl)c3nc(C)ccc3c2=O)c1`, for which the survival is inactive: 94%. The value for `O=C(Nc1cccc(O)c1)c1noc2c1CCc1ccccc1-2` was inactive: 73%. The value for `CCc1ccc(-n2c(=O)c3sc4ccccc4c3n(CC(=O)N3CCCC3)c2=O)cc1` was inactive: 83%. In the case of `O=C(CSc1nc2ccsc2c(=O)n1Cc1ccccc1Cl)NCc1ccc(F)cc1` it was inactive: 58%; in that of `Cc1c(Cl)cccc1NC(=O)Cn1cc(C(=O)c2cccs2)c2ccccc21`, inactive: 136%; in that of `c1ccc2c(c1)Nc1nc3ccccc3nc1N2`, inactive: 95%.

In the case of `Cc1nc(-c2cccc(NC(=O)Nc3ccccc3C(F)(F)F)c2)no1`, the survival was inactive: 134%. For `CC(C)CN(CC(C)C)S(=O)(=O)c1ccc(C(=O)Nc2sc3c(c2C(N)=O)CC(C)(C)NC3(C)C)cc1`, the survival is inactive: 85%. For the compound `O=C(Nc1c2c(nn1-c1ccc(Cl)cc1)CS(=O)(=O)C2)c1cccc(F)c1`, the survival is inactive: 66%. As for `CCc1ccc(NC(=O)CCCc2nnc3n(CC(C)C)c(=O)c4sccc4n23)cc1`, the survival was inactive: 103%. The value for `CC(C)c1nn2c(=O)cc(COC(=O)c3ccccc3NC(=O)COc3ccccc3)nc2s1` was inactive: 70%; that for `COC(=O)c1ccc(C2c3c(-c4ccccc4O)n[nH]c3C(=O)N2Cc2ccncc2)cc1` (stereo not drawn) was inactive: 88%.

Regarding `COc1ccc(-c2nc(CNS(=O)(=O)c3ccc(Br)cc3)cs2)cc1`, the survival is inactive: 88%. On to `COc1cc(C(=O)N(CCc2ccccc2)C2CC3CCC(C2)N3C)cc(OC)c1OC` (stereo not drawn), for which the survival is inactive: 104%. In the case of `CCC(=O)N1CCc2cc(OC)c(OC)cc2C1COc1ccccc1OC` (stereo not drawn) it was inactive: 91%; in that of `Cc1cccc(OCc2ccc(-c3nc(C#N)c(NCc4cccnc4)o3)o2)c1`, inactive: 102%; in that of `O=C(CSc1nc(-c2cccc(F)c2)[nH]c1-c1ccccc1)Nc1ccc2c(c1)OCCO2`, inactive: 118%. Consider `CC(=O)N1CCN(C2=NC(=O)C(=C3CCCCC3)S2)CC1`, for which the survival is inactive: 112%. In the case of `CCOc1ccccc1NC(=O)c1c(NCc2cccs2)sc2c1CCC(C)C2` (stereo not drawn) it was inactive: 119%. The value for `COC(=O)Nc1ccc(S(=O)(=O)N(CCO)CCO)cc1` was inactive: 99%; that for `O=C(c1ccccc1)N(Cc1nc2ccccc2c(=O)[nH]1)C1CCCC1` was inactive: 117%; that for `Cc1nnc(NC(=O)CSc2nccn2Cc2ccc(F)cc2)s1` was active: -2%.

`CC(=O)Nc1ccc(S(=O)(=O)NCCc2cn3ccsc3n2)cc1`: the survival is inactive: 72%. The value for `COc1cc(NC(=O)CSc2nc(-c3ccco3)cc(C(F)(F)F)n2)cc(OC)c1OC` was inactive: 80%; that for `CCc1cc(C(=O)NCc2ccccc2)no1` was inactive: 63%.

Take `Cc1nnc(NC(=O)c2nc(SCc3ccccc3F)ncc2Cl)s1`: the survival was inactive: 94%.

Take `COc1ccccc1NC(=O)CN1C(=O)C2(SCC(=O)N2c2ccc(F)c(F)c2)c2ccccc21` (stereo not drawn): the survival was inactive: 72%.

With `O=C(NCc1ccccc1)C(=O)Nc1ccc2nc3n(c(=O)c2c1)CCCCC3`, the survival was inactive: 94%. In the case of `Cc1cc(C)nc(-n2nc(C)c3c2N(C)C(=O)CC3c2ccc(Cl)cc2)n1` (stereo not drawn) it was inactive: 95%; in that of `Cc1c(C(=O)Nc2cccc(Cl)c2)oc2ccc(S(=O)(=O)N3CCCCCC3)cc12`, inactive: 66%.

For `Cc1ccc(CN2COc3ccc4c(-c5ccccc5)cc(=O)oc4c3C2)cc1`, the survival was inactive: 80%.

`CC(=O)Nc1nc(SCc2ccccc2Cl)n[nH]1`: the survival was inactive: 109%. In the case of `CCOC(=O)c1sc(NC(=O)CSc2nnc(Cn3nnc4ccccc43)n2C)nc1C` it was inactive: 104%. The value for `Cc1cc(-c2ccc(S(=O)(=O)Nc3ccccc3F)s2)on1` was inactive: 85%; that for `COC(=O)C1=C(C)NC(C)=C(C(=O)OC)C1C1CC=CCC1` (stereo not drawn) was inactive: 109%. In the case of `CC(NC(=O)Cc1ccc(NC(=O)N2CCSc3ncccc32)cc1)c1ccccc1` (stereo not drawn) it was inactive: 83%. `CCCOc1ccc(C(=O)Nc2ccc(NC(=O)c3ccccc3)c(Br)c2)cc1`: the survival is inactive: 136%. For `O=S(=O)(NCCc1ccccc1)c1ccc(S(=O)(=O)N2CCCCC2)cc1`, the survival is inactive: 96%. For the compound `O=C(Nc1ccc2oc(=O)ccc2c1)c1cccs1`, the survival was inactive: 117%. In the case of `Cc1ccc(C)c(NC(=O)Cn2c(=O)n(CC3CCCO3)c(=O)c3ccccc32)c1` (stereo not drawn) it was inactive: 119%.

Turning to `CCN1CCN(c2ncnc3c2cnn3-c2ccc(C)c(C)c2)CC1`, the survival is inactive: 99%. `CC(=O)Nc1ccc(NC(=O)CSc2nc3ccccc3nc2N2CCCCC2)cc1`: the survival is inactive: 90%. Regarding `Cc1oc(CSCCSCc2cc(C(=O)O)c(C)o2)cc1C(=O)O`, the survival is inactive: 97%.

The values are drawn from PubChem BioAssay AID463173 (ICCB-Longwood Screening Facility, Harvard Medical School, 2010).
